T1: C4.4a on A549 cells transfected with the sequence for the complete C4.4a receptor (Homo sapiens)
T1 chain: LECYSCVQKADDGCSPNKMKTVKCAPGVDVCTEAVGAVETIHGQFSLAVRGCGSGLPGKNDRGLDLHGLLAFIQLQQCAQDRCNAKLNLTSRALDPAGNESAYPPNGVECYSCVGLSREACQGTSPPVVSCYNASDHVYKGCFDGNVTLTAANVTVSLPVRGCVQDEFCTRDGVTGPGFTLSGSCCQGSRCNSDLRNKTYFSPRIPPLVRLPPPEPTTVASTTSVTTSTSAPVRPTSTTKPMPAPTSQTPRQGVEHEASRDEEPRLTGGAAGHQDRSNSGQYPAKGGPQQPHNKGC

B1: ADC of Example 122 (antibody)
heavy: EVQLLESGGGLVQPGGSLRLSCAASGFTFSNAWMSWVRQAPGKGLEWVSYISSSGSTIYYADSVKGRFTISRDNSKNTLYLQMNSLRAEDTAVYYCAREGLWAFDYWGQGTLVTVSS[in this place human IgG1 constant region]
light: ESVLTQPPSVSGAPGQRVTISCTGSSSNIGAGYVVHWYQQLPGTAPKLLIYDNNKRPSGVPDRFSGSKSGTSASLAISGLRSEDEADYYCAAWDDRLNGPVFGGGTKLTVLGQPKAAPSVTLFPPSSEELQANKATLVCLISDFYPGAVTVAWKADSSPVKAGVETTTPSKQSNNKYAASSYLSLTPEQWKSHRSYSCQVTHEGSTVEKTVAPTECS
modifications: toxophore-linker on Cys (via S); toxophore-linker on Cys (via S)
B2: ADC of Example 125 (antibody)
heavy: EVQLLESGGGLVQPGGSLRLSCAASGFTFSNAWMSWVRQAPGKGLEWVSYISSSGSTIYYADSVKGRFTISRDNSKNTLYLQMNSLRAEDTAVYYCAREGLWAFDYWGQGTLVTVSS[in this place human IgG1 constant region]
light: ESVLTQPPSVSGAPGQRVTISCTGSSSNIGAGYVVHWYQQLPGTAPKLLIYDNNKRPSGVPDRFSGSKSGTSASLAISGLRSEDEADYYCAAWDDRLNGPVFGGGTKLTVLGQPKAAPSVTLFPPSSEELQANKATLVCLISDFYPGAVTVAWKADSSPVKAGVETTTPSKQSNNKYAASSYLSLTPEQWKSHRSYSCQVTHEGSTVEKTVAPTECS
modifications: toxophore-linker on Lys (via NH); toxophore-linker on Lys (via NH)
B3: ADC of Example 124 (antibody)
heavy: EVQLLESGGGLVQPGGSLRLSCAASGFTFSNAWMSWVRQAPGKGLEWVSYISSSGSTIYYADSVKGRFTISRDNSKNTLYLQMNSLRAEDTAVYYCAREGLWAFDYWGQGTLVTVSS[in this place human IgG1 constant region]
light: ESVLTQPPSVSGAPGQRVTISCTGSSSNIGAGYVVHWYQQLPGTAPKLLIYDNNKRPSGVPDRFSGSKSGTSASLAISGLRSEDEADYYCAAWDDRLNGPVFGGGTKLTVLGQPKAAPSVTLFPPSSEELQANKATLVCLISDFYPGAVTVAWKADSSPVKAGVETTTPSKQSNNKYAASSYLSLTPEQWKSHRSYSCQVTHEGSTVEKTVAPTECS
modifications: toxophore-linker on Lys (via NH); toxophore-linker on Lys (via NH)
B4: ADC of Example 123 (antibody)
heavy: EVQLLESGGGLVQPGGSLRLSCAASGFTFSNAWMSWVRQAPGKGLEWVSYISSSGSTIYYADSVKGRFTISRDNSKNTLYLQMNSLRAEDTAVYYCAREGLWAFDYWGQGTLVTVSS[in this place human IgG1 constant region]
light: ESVLTQPPSVSGAPGQRVTISCTGSSSNIGAGYVVHWYQQLPGTAPKLLIYDNNKRPSGVPDRFSGSKSGTSASLAISGLRSEDEADYYCAAWDDRLNGPVFGGGTKLTVLGQPKAAPSVTLFPPSSEELQANKATLVCLISDFYPGAVTVAWKADSSPVKAGVETTTPSKQSNNKYAASSYLSLTPEQWKSHRSYSCQVTHEGSTVEKTVAPTECS
modifications: toxophore-linker on Lys (via NH); toxophore-linker on Lys (via NH)
B5: ADC of Example 1 (antibody)
heavy: QVELLESGGGLVQPGGSLRLSCAASGFTFSNAWMSWVRQAPGKGLEWVSYISSSGSTIYYADSVKGRFTISRDNSKNTLYLQMNSLRAEDTAVYYCAREGLWAFDYWGQGTLVTVSS[in this place human IgG1 constant region]
light: DIVLTQPPSASGTPGQRVTISCTGSSSNIGAGYVVHWYQQLPGTAPKLLIYDNNKRPSGVPDRFSGSKSGTSASLAISGLRSEDEADYYCAAWDDRLNGPVFGGGTKLTVLGQPKAAPSVTLFPPSSEELQANKATLVCLISDFYPGAVTVAWKGDSSPVKAGVETTTPSKQSNNKYAASSYLSLTPEQWKSHRSYSCQVTHEGSTVEKTVAPTECS
modifications: toxophore-linker on Cys (via S); toxophore-linker on Cys (via S)

We go through five molecules from patent US8992932B2 (Seattle Genetics, Inc., dated 2015).

In the test the target is T1, C4.4a on A549 cells transfected with …. Description: cell-based or functional assay.
Regarding B1, the “IC50 [nM] A549: C4.4a (cell viability)” value came to 0.04 nM.

In the case of B2, the “IC50 [nM] A549: C4.4a (cell viability)” value was 0.04 nM.

In the case of B3, the “IC50 [nM] A549: C4.4a (cell viability)” value came to 0.04 nM.

In the case of B4, the “IC50 [nM] A549: C4.4a (cell viability)” value is 0.02 nM.

As to B5, the “IC50 [nM] A549: C4.4a (cell viability)” value is 0.081 nM.
